Data published in PubChem BioAssay AID1030 (National Center for Advancing Translational Sciences (NCATS), 2008).
Among all 220,000 compounds or so, about 16,000 (7.3%) were called active. The inconclusive results got no clear call from the source; some entries with a clear call stand among them for comparison. The call rests on the fitted dose curve; in most records, active means well fitted inhibition curve with a large enough effect (not every such curve was filed as active); inconclusive means small, poorly fitted or top-dose-only effect, or another doubt; inactive means no such curve, though single readings can be large or run the other way. No potency is given beside an inconclusive call; the fits are too rough.

biological target: Aldehyde dehydrogenase 1A1 (Homo sapiens) (UniProt P00352); assay: qHTS Assay for Inhibitors of Aldehyde Dehydrogenase 1 (ALDH1A1); conditions: Purified ALDH1A1, NADH fluorescence, propionaldehyde substrate; series mostly up to 75.3 µM; activity, negative = inhibition: at the top concentration;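 on activity, negative = inhibition: plate controls were no enzyme wells and a reference inhibitor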
Potency means the concentration at half of the fitted maximal effect; tags describe the fitted curve by direction and shape.

Sequence of UniProt P00352 (P00352 whole entry, looked up): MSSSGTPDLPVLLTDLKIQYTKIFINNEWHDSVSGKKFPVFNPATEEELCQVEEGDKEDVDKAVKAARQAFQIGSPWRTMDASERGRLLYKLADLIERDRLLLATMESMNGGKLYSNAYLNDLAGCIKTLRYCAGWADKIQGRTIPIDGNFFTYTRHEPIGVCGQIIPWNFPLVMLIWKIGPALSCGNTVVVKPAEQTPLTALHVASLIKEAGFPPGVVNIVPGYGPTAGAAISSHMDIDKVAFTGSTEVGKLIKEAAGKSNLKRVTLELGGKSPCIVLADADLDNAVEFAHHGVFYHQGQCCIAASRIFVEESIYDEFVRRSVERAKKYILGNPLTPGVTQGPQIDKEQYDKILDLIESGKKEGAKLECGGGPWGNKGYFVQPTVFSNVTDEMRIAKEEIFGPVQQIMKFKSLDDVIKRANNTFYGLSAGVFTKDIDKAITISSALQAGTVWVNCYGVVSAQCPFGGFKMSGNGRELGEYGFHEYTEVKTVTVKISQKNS

SMILES | Potency | activity, negative = inhibition
CC(C)COc1ccc(N)cc1OCC(C)C | inconclusive [inhibitor, single point] | –
COC(=O)CSc1ncnc2c1sc1nc(N3CCOCC3)c3c(c12)CCCC3 | inconclusive [inhibitor, partial curve] | –
Cc1nc(CSc2ccc(Cl)cc2)cc(NCc2ccccc2)n1 | inconclusive [inhibitor, single point] | –
Clc1ccc(Cn2ncc3c(NCc4ccco4)ncnc32)c(Cl)c1 | inconclusive [inhibitor, single point] | –
CC(=C/c1ccc(C(C)C)cc1)/C=N/NC(=O)c1ccncc1 | inconclusive [inhibitor, single point] | –
COc1ccccc1NS(=O)(=O)c1cc(N2Cc3ccccc3C2=N)ccc1N1CCOCC1 | active: 8.91 µM | –
O=C(C(=O)N1CCN(c2ccccc2F)CC1)c1c[nH]c2ccccc12 | – | inactive: -5.65%
COc1ccc(C(=O)NCC(=O)OCC(=O)c2ccc3c(c2)OCCO3)cc1 | active: 7.94 µM | –
COCCn1c(=O)c(-c2cccc(C#N)c2)nc2cnc(N3CCN(C)CC3)nc21 | inconclusive [inhibitor, partial curve] | –
COc1ccc(N2CCN(C(=O)CSc3nnc4c5cc(C)ccc5n(C)c4n3)CC2)cc1 | inconclusive [inhibitor, single point] | –
O=C1C(Cl)=C(Nc2cccc(O)c2)C(=O)N1Cc1ccccc1 | inconclusive [inhibitor, partial curve, poor fit] | –
CCN(CC)CCCNC(=O)c1cn(CCOC)c(=O)c2c1c1ccccc1n2C | inconclusive [inhibitor, partial curve] | –
COc1cc2[nH]c3c(N4CCN(c5ccc(Cl)cc5)CC4)ncnc3c2cc1OC | inconclusive [inhibitor, single point] | –
O=C(c1ccccc1Cl)N1CCN(c2ccccn2)CC1 | inconclusive [inhibitor, single point] | –
Cc1cccc(/C(N)=N/OC(=O)c2ccc(Cl)cc2Cl)c1 | – | inactive: 8.59%
COc1cccc(/C=N/Nc2ncccc2[N+](=O)[O-])c1OC | inconclusive [inhibitor, single point] | –
CC1=C(C)CC(C(=O)Nc2cccc(Cl)c2)C(C(=O)O)C1 (centres undefined) | inconclusive [inhibitor, single point] | –
COc1ccc(COC(=O)c2nc3nc(C)cc(C)n3n2)cc1F | inconclusive [inhibitor, single point] | –
CCn1nnc(-c2ccccc2NS(=O)(=O)c2ccc(S(=O)(=O)N3CCCCCC3)cc2)n1 | inconclusive [inhibitor, single point] | –
COCCNC(=O)C(=O)NNC(=O)c1ccccc1OC | – | inactive: 8.51%
O=C(NC(=S)Nc1ccc(Oc2ccccc2)cc1)c1ccc(Cl)cc1 | active: 14.1 µM | –
O=[N+]([O-])c1ccc(N2CCOCC2)cc1NCCCO | inconclusive [inhibitor, single point] | –
Fc1cccc(CN2CCN(c3nc4nonc4nc3NC3CC3)CC2)c1 | inconclusive [inhibitor, single point] | –

SMILES | Potency | activity, negative = inhibition
O=C(COC(=O)CCC1CCCC1)NCc1ccc(Cl)cc1 | inconclusive [inhibitor, single point] | –
CCN(CC)S(=O)(=O)c1ccc(NC(=O)COC(=O)CNS(=O)(=O)/C=C/c2ccccc2)cc1 | active: 1 µM | –
Cc1noc(C)c1S(=O)(=O)Nc1ccc(C(=O)N2CCCCC2)cc1 | – | inactive: -7.49%
CC(C)=C1SC(N2CCN(c3cccc(C(F)(F)F)c3)CC2)=NC1=O | inconclusive [inhibitor, single point] | –
COCCNC(=O)c1cc2sc3ccccc3c2s1 | inconclusive [inhibitor, single point] | –
O=C(O)c1cn(-c2ccc(N3CCCC3)c(F)c2)c2c(F)c(F)c(F)cc2c1=O | active: 15.8 µM | –
CCOc1ccccc1NC(=O)COC(=O)Cc1ccc(-c2ccccc2)cc1 | inconclusive [inhibitor, single point] | –
CCC(C)c1ccc(O)c(NC(=O)c2cccnc2)c1 (centres undefined) | active: 11.2 µM | –
O=C(c1ccco1)N1C(=O)c2cccc3cccc1c23 | inconclusive [inhibitor, partial curve] | –
O=C(NC(=S)N1CCN(c2ccc([N+](=O)[O-])cc2)CC1)c1ccccc1F | active: 25.1 µM | –
COC(=O)c1cc(OC)c(OC)cc1NC(=S)Nc1cccc(Cl)c1 | inconclusive [inhibitor, partial curve, poor fit] | –
CC(C)Cc1nnc(NC(=O)c2cc(-c3ccccc3)nc3ccccc23)s1 | inconclusive [inhibitor, single point] | –
Cc1cccc(NC(=O)CNC(=O)COc2cc(F)ccc2[N+](=O)[O-])c1C | – | inactive: 6.9%
CCCn1c(=N)c(C(=O)NC2CCCC2)cc2c(=O)n3cccc(C)c3nc21 | inconclusive [inhibitor, partial curve] | –
COc1ccc(-c2cc(-c3ccc(C)cc3)nc(SCc3nnc(-c4ccccc4)o3)c2C#N)cc1OC | inconclusive [inhibitor, partial curve] | –
CC(=O)N1N=C(c2ccc(Br)cc2)CC1c1cn(C)c2ccccc12 (centres undefined) | inconclusive [inhibitor, single point] | –
CCOC(=O)N1CCC(NC(=O)c2ccc3c(c2)N(Cc2ccc(C)cc2)CCS3)CC1 | inconclusive [inhibitor, partial curve] | –
COc1cc2c(cc1OC)C1=C(C#N)CCC(=NC(=O)c3ccco3)N1CC2 | inconclusive [inhibitor, single point] | –
COc1ccc(C2Nc3ccc(Br)cc3C(c3ccccc3)N2CC(=O)O)cc1 (centres undefined) | inconclusive [inhibitor, single point] | –
CC1CC(C)CN(S(=O)(=O)c2ccc(C(=O)Nc3sccc3C(N)=O)cc2)C1 (centres undefined) | inconclusive [inhibitor, single point] | –
CCOC(=O)C1=C(C)C(c2ccc(OC)cc2)NC(=S)N1 (centres undefined) | active: 2.24 µM | –
COc1ccc(-c2noc(CSc3nc4sc(C)c(C)c4c(=O)n3-c3ccccc3)n2)cc1OC | – | inactive: 6.55%
C[C@@H](O)[C@H]1C(=O)N2C(C(=O)O)=C(S[C@@H]3CN[C@H](C(=O)N(C)C)C3)[C@H](C)[C@H]12 | – | inactive: -10.6% [at 20.9 µM]

SMILES | Potency | activity, negative = inhibition
COc1ccc(OC)c(-c2cc(C(=O)Nc3c(C)nn(Cc4ccccc4)c3C)no2)c1 | inconclusive [inhibitor, single point] | –
CN(C)c1ccc(-c2nc(N3CCNCC3)c3ccccc3n2)cc1 | – | inactive: -14.7%
Cc1ccc(C(=O)N/C(=C/c2ccco2)C(=O)NCC2CCCO2)cc1 (centres undefined) | inconclusive [inhibitor, single point] | –
Cc1cc(Cl)ccc1OCC(=O)N1CCCCC1 | – | inactive: -14%
COc1ccccc1C(=O)N1CCN(Cc2nc3cc([N+](=O)[O-])ccc3n2C)CC1 | inconclusive [inhibitor, single point] | –
O=C1NC(C(=O)O)=CC(c2ccc([N+](=O)[O-])cc2)N1 (centres undefined) | active: 14.1 µM | –
CCn1c(SCC(=O)Nc2ccccc2N2CCOCC2)nnc1-c1ccccc1 | inconclusive [inhibitor, single point] | –
Cc1cccc(-n2c(SCC(N)=O)nc3c(c2=O)C2(CCCCC2)Cc2ccccc2-3)c1 | inconclusive [inhibitor, single point] | –
CCCn1c(=O)c(C(=O)Nc2ccccc2C(=O)OCC)c(O)c2ccccc21 | inconclusive [inhibitor, single point] | –
C[C@H](CO)NC(=O)[C@H](C)[C@@H]1C[C@@]1(C)[C@@H](NC(=O)OCc1ccccc1)c1ccccc1 | inactive | –
O=C(COC(=O)C1CCC(=O)N1)Nc1ccc(Oc2ccccc2)cc1 (centres undefined) | – | inactive: 3.1%
Cc1ccc(CNC(=O)CNC(=S)N(Cc2ccccc2)Cc2cccnc2)cc1 | inconclusive [inhibitor, partial curve] | –
Cc1ccc2[nH]c3c(c2c1)CN(C(=O)CN1CCCc2ccccc21)CC3 | active: 2.82 µM | –
O=C(Cn1c(=O)n2ncnc2c2c3c(sc21)CCCC3)c1ccccc1 | inconclusive [inhibitor, partial curve, poor fit] | –
Cc1ccc(S(=O)(=O)Oc2ccc(/C=N/NC(=O)c3nn(C)cc3Cl)cc2)cc1 | inconclusive [inhibitor, single point] | –
CN(CC(=O)N1CCN(c2ccccn2)CC1)S(=O)(=O)c1cccc2nsnc12 | – | inactive: -1.57%
CSc1nsc(SC)c1NC(=O)Nc1ccccc1C | inconclusive [inhibitor, single point] | –
Cc1c(Nc2ccc(C=O)cc2)c(=O)n(-c2ccccc2)n1C | – | inactive: -2.07%
Cc1ccc(S(=O)(=O)N(CC(=O)Nc2cccc([N+](=O)[O-])c2)C2CCCCC2)cc1 | inconclusive [inhibitor, partial curve, poor fit] | –
Cn1c(=O)oc2cc(S(=O)(=O)NCCC(=O)Nc3ccc4c(c3)OCCO4)ccc21 | – | inactive: -2.35%
Cc1cc([N+](=O)[O-])nn1CCC(=O)Nc1nccs1 | – | inactive: 9.19%
COC(=O)c1ccccc1NC(=O)CNc1cc(Cl)ccc1N1CCOCC1 | active: 31.6 µM | –
COc1cc(S(=O)(=O)N2CCN(c3ccccc3F)CC2)c(OC)cc1Cl | active: 25.1 µM | –
